Results: the supplement of paper PMC5499739
Over roughly 16,000 sequences, “Z-score” has its median near -0.37; the highest 2% begin near 3.2. Some of the results follow.

Tested on: RBM10 RRM1-ZnF (GST-tagged construct)
Test: RNAcompete 7-mer binding Z-score; higher = stronger binding preference
Method in brief: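 Bound RNA was identified by microarray hybridisation after GST-tagged RBM10 constructs (20 pmol) had been mixed with 1.5 nmol of a designed pool of 241 399 RNAs up to 41 nt, transcribed from microarray-derived DNA templates. Binding ran for 30 min at 4°C in 1 ml Hepes pH 7.8 buffer with KCl, NaCl, glycerol, DTT, BSA and glutathione Sepharose beads, with four 2-min washes at 4°C afterwards. For every heptamer motif, a one-sided Z-score for enrichment was computed across the probes that contained it.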

| Sequence | RNAcompete 7-mer binding Z-score |
| --- | --- |
| GUAUGAG | 1.13 |
| GACUUCG | -0.5 |
| UAACUUG | -0.578 |
| AACAGCC | -0.766 |
| AAAACGA | -0.21 |
| GGCUAUC | -0.422 |
| UGUCAUG | -0.142 |
| GGGCGUA | 2.07 |
| ACGGGGA | 3.04 |
| UUCUUAU | -0.769 |
| GAUGGAU | 2.6 |
| AUGGGCG | 2.86 |
| UGGUAGU | 0.949 |
| CCGUCGU | -0.451 |
| CACCUCG | -0.366 |
| GCGCAUU | -0.552 |
| AAGCGCC | -0.435 |
| UGGAUGG | 4.14 |
| GUUUAAG | 0.446 |
| CGUCCGU | -0.591 |
| CACGGGU | 1.99 |
| GUAGGAA | 2.14 |
| CUGCCCA | -0.477 |

| Sequence | RNAcompete 7-mer binding Z-score |
| --- | --- |
| AGACUAG | -0.0414 |
| UAUAAUC | -0.633 |
| CCAUGCU | -0.909 |
| GAUAAGG | 3.91 |
| GACAGGU | 2.19 |
| AGAACAG | 0.277 |
| GUGAUUG | 0.875 |
| UAUGCAG | 0.202 |
| AGUGGAG | 3.09 |
| UCUAUGA | -0.568 |
| UUAGCUA | -0.435 |
| ACGGAGC | 1.1 |
| UGUGCUA | -0.188 |
| CCAUUUU | -1.03 |
| AGCUUCA | -0.668 |
| UGUGUAU | 0.0658 |
| GCGCCAG | 0.394 |
| UGGGUAA | 2.97 |
| AAACAGG | 1.68 |
| AUCUGAG | -0.581 |
| AAAUCCG | -0.828 |
| AGGUCCU | -0.513 |
| CCAUGGC | -0.62 |

| Sequence | RNAcompete 7-mer binding Z-score |
| --- | --- |
| GCCGGCG | -0.35 |
| AUUGCUU | -0.766 |
| AGUUCGC | -0.649 |
| AACUUUG | -0.727 |
| GGGUCCG | 1.56 |
| UGCAGAU | -0.113 |
| GCGCCCG | -0.366 |
| UGCACUC | -0.548 |
| AUACACG | -0.435 |
| GCAGUGC | -0.201 |
| AUUGUAG | 0.368 |
| GAAACGG | 2.26 |
| GCGGGUC | 1.93 |
| ACCAACU | -0.639 |
| AUUAAUU | -0.646 |
| UGAGCCA | -0.474 |
| GUGCUAG | 0.54 |
| UGUCUCA | -0.642 |
| UUAGGAC | 0.647 |
| UCGUGGG | 2.53 |
| CAGCUGA | -0.308 |
| GUCGUGG | 1.38 |
| CUCACAG | -0.285 |

| Sequence | RNAcompete 7-mer binding Z-score |
| --- | --- |
| ACAGGGA | 3 |
| CGCAGGA | 0.761 |
| CCGGCAU | -0.805 |
| AGUGGUC | 0.413 |
| CCCGUAG | -0.441 |
| AUUUAGG | 0.677 |
| AGGAAAA | 1.71 |
| CCAGAGG | 0.449 |
| CCCAGCG | -0.188 |
| GUGCGUG | 0.813 |
| UGCUUCC | -0.724 |
| UCAGUGG | 0.946 |
| GACAGAU | -0.155 |
| ACCAGCG | -0.184 |
| GGACGAU | 0.673 |
| AUUAACG | -0.373 |
| UCCGAAC | -0.626 |
| GUCUAGU | -0.279 |
| AUACAGA | -0.119 |
| CAAACAA | -0.34 |
| GGUAGCU | 0.797 |
| UGCCAUC | -0.75 |
| CAUCAGG | 0.228 |

| Sequence | RNAcompete 7-mer binding Z-score |
| --- | --- |
| GCCAUGC | -0.646 |
| CCUUGUG | -0.707 |
| GCCCUGA | -0.61 |
| AUGGGGG | 4.12 |
| UACUGCA | -0.604 |
| AGUCCCG | -0.308 |
| AUUGAUC | -0.392 |
| UCUCGUC | -0.701 |
| AAGCAUA | -0.214 |
| ACCAAGU | -0.402 |
| GAGCAUG | 0.358 |
| ACAUAGA | -0.0479 |
| AGCCCAU | -0.912 |
| CACAUUA | -0.6 |
| AACCGAU | -0.623 |
| GAGAUCG | 0.459 |
| CAUAAAA | -0.49 |
| CCAAAUA | -0.594 |
| UAAUCAA | -0.448 |
| GAAACAU | -0.249 |
| CCUGUGC | -0.552 |
| UCAUGGA | 0.491 |
| GUAGCGG | 1.77 |

| Sequence | RNAcompete 7-mer binding Z-score |
| --- | --- |
| AGGGGGA | 2.47 |
| AUAAUGU | -0.0317 |
| CGAGGCA | 0.605 |
| CCGGACA | -0.513 |
| CGCCCGU | -0.376 |
| UCGGGGC | 1.65 |
| CCCAAAG | -0.61 |
| AUCAAAA | -0.327 |
| GUCGUAU | -0.00246 |
| AAGGAAG | 3.84 |
| GGGGUAC | 2.57 |
| AAUCUUU | -0.763 |
| GUAUCAC | -0.0512 |
| GUUAGUU | 0.03 |
| AUGCGCG | -0.165 |
| UCGUGAA | -0.217 |
| UUCUUUC | -0.808 |
| ACUUCAG | -0.539 |
| UACGAUA | -0.279 |
| UGCGGCG | 0.729 |
| AUGCUCU | -0.828 |
| GUCAACG | -0.0155 |
| UAGUGCG | 0.478 |

| Sequence | RNAcompete 7-mer binding Z-score |
| --- | --- |
| AUUUUGC | -0.993 |
| CGAAGGC | 0.524 |
| CUACGUU | -0.542 |
| CUAGAGC | -0.366 |
| AUGGUUG | 2.51 |
| ACAAAUG | 0.0788 |
| GUUCCGA | -0.565 |
| GAGGCGU | 0.725 |
| AGAGAUG | 1.04 |
| ACUGCAC | -0.464 |
| GUCUCUC | -0.659 |
| UCUUGAA | -0.785 |
| AGAUGCC | -0.753 |
| UGCCCUU | -0.789 |
| AACCUGU | -0.665 |
| CACUAGA | -0.194 |
| AAUCGCA | -0.386 |
| UUCAAGG | 0.056 |
| AAGGGUC | 1.72 |
| AAUUUAA | -0.467 |
| UUGCCCA | -0.633 |
| CGGAUCC | -0.301 |
| GCGCUAA | -0.535 |

| Sequence | RNAcompete 7-mer binding Z-score |
| --- | --- |
| GCAGAGA | 0.979 |
| UUUCCAG | -0.737 |
| UACAUCU | -0.72 |
| AGGUGCC | 0.261 |
| AAGAUUU | -0.626 |
| CGUCCCC | -0.373 |
| CAAUCUA | -0.626 |
| GAUAUCA | -0.269 |
| CACCCGU | -0.516 |
| UUCACAC | -0.678 |
| UGGACGU | 1.36 |
| ACAUCUU | -0.893 |
| AACGUCC | -0.818 |
| AGGGUUU | 2.56 |
| CGGCGCC | -0.272 |
| GUUGUGG | 1.99 |
| CUCGUAU | -0.704 |
| GUGAAAA | 0.556 |
| GAAUAUC | -0.418 |
| CCUCAGG | -0.363 |
| UUUCUCU | -0.652 |
| GGAUAAG | 2.69 |
